Test results reported in the supplement of paper PMC8728848.
The list shows a part of the results.

Tests used:
Assay in all cases: glycan array binding signal (z-score within array); higher = stronger binding
Conditions in all cases: glycan notation: IUPAC condensed, linker removed
[1] = target: Gal(b1-4)GlcNAc(b1-3)Gal(b1-4)GlcNAc(b1-6)[Gal(b1-3)]GalNAc
Outline: (§1)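 Arrays were curated from the Consortium for Functional Glycomics database, 3228 in total, and kept only where the protein sequence was available. Binding is expressed as a within-array Z-score. This score was averaged across arrays of the same protein sequence at different concentrations or buffers and across linkers, and negative values can be read as non-binding.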

[2] = target: Gal(b1-4)GlcNAc(b1-3)Gal(b1-4)[Fuc(a1-3)]GlcNAc(b1-3)Gal(b1-4)[Fuc(a1-3)]GlcNAc
Outline: as §1

[3] = target: Gal(b1-4)GlcNAc(b1-3)GalNAc
Outline: as §1

[4] = target: Gal(b1-4)GlcNAc(b1-3)[Fuc(a1-3)GlcNAc(b1-6)]Gal(b1-4)Glc
Outline: as §1

[5] = target: Gal(b1-4)GlcNAc(b1-3)[Gal(b1-4)GlcNAc(b1-6)]Gal(b1-4)GlcNAc
Outline: as §1

[6] = target: Gal(b1-4)GlcNAc(b1-3)[GlcNAc(b1-6)]Gal(b1-4)GlcNAc
Outline: as §1

[7] = target: Gal(b1-4)GlcNAc(b1-6)Gal(b1-4)GlcNAc
Outline: as §1

[8] = target: Gal(b1-4)GlcNAc(b1-6)GalNAc
Outline: as §1

[9] = target: Gal(b1-4)GlcNAc(b1-6)[Gal(b1-3)]GalNAc
Outline: as §1

[10] = target: Gal(b1-4)GlcNAc(b1-6)[Gal(b1-4)GlcNAc(b1-3)]GalNAc
Outline: as §1

[11] = target: Gal(b1-4)GlcNAc6P
Outline: as §1

[12] = target: Gal(b1-6)Gal
Outline: as §1

[13] = target: Gal3S(b1-3)GalNAc
Outline: as §1

[14] = target: Gal3S(b1-3)GlcNAc
Outline: as §1

[15] = target: Gal3S(b1-3)[Fuc(a1-4)]GlcNAc
Outline: as §1

[16] = target: Gal3S(b1-4)Glc
Outline: as §1

[17] = target: Gal3S(b1-4)Glc6S
Outline: as §1

[18] = target: Gal3S(b1-4)GlcNAc
Outline: as §1

[19] = target: Gal3S(b1-4)[Fuc(a1-3)]Glc6S
Outline: as §1

[20] = target: Gal3S(b1-4)[Fuc(a1-3)]GlcNAc
Outline: as §1

[21] = target: Gal3S(b1-4)[Fuc(a1-3)]GlcNAc6S
Outline: as §1

[22] = target: Gal3S4S(b1-4)GlcNAc
Outline: as §1

[23] = target: Gal3S6S(b1-4)GlcNAc
Outline: as §1

[24] = target: Gal3S6S(b1-4)GlcNAc6S
Outline: as §1

[25] = target: Gal4S(b1-4)GlcNAc
Outline: as §1

[26] = target: Gal4S6S(b1-4)GlcNAc
Outline: as §1

[27] = target: Gal6P(b1-4)GlcNAc
Outline: as §1

[28] = target: Gal6S(b1-3)GlcNAc
Outline: as §1

[29] = target: Gal6S(b1-3)GlcNAc6S
Outline: as §1

[30] = target: Gal6S(b1-4)Glc
Outline: as §1

[31] = target: Gal6S(b1-4)Glc6S
Outline: as §1

[32] = target: Gal6S(b1-4)GlcNAc
Outline: as §1

[33] = target: Gal6S(b1-4)GlcNAc6S
Outline: as §1

[34] = target: GalNAc(a1-3)Gal
Outline: as §1

[35] = target: GalNAc(a1-3)GalNAc
Outline: as §1

[36] = target: GalNAc(a1-3)GalNAc(b1-3)Gal(a1-4)Gal(b1-4)Glc
Outline: as §1

[37] = target: GalNAc(a1-3)GalNAc(b1-3)Gal(a1-4)Gal(b1-4)GlcNAc
Outline: as §1

[38] = target: GalNAc(b1-3)Gal
Outline: as §1

[39] = target: GalNAc(b1-3)Gal(a1-4)Gal(b1-4)GlcNAc
Outline: as §1

[40] = target: GalNAc(b1-3)Gal(a1-4)Gal(b1-4)GlcNAc(b1-3)Gal(b1-4)Glc
Outline: as §1

[41] = target: GalNAc(b1-3)Gal(a1-6)Gal(b1-4)Glc
Outline: as §1

[42] = target: GalNAc(b1-3)GalNAc
Outline: as §1

[43] = target: GalNAc(b1-3)GlcNAc
Outline: as §1

[44] = target: GalNAc(b1-4)Gal(b1-4)Glc
Outline: as §1

[45] = target: GalNAc(b1-4)GlcNAc
Outline: as §1

B1: Als3-2 (Candida albicans) (protein)
chain: KTITGVFNSFNSLTWSNAATYNYKGPGTPTWNAVLGWSLDGTSASPGDTFTLNMPCVFKFTTSQTSVDLTAHGVKYATCQFQAGEEFMTFSTLTCTVSNTLTPSIKALGTVTLPLAFNVGGTGSSVDLEDSKCFTAGTNTVTFNDGGKKISINVDFERSNVDPKGYLTD
[1]
  glycan array binding signal (z-score): 0.662
[2]
  glycan array binding signal (z-score): 0.27
[3]
  glycan array binding signal (z-score): -0.479
[4]
  glycan array binding signal (z-score): 0.849
[5]
  glycan array binding signal (z-score): 0.212
[6]
  glycan array binding signal (z-score): -0.068
[7]
  glycan array binding signal (z-score): 1.11
[8]
  glycan array binding signal (z-score): -0.031
[9]
  glycan array binding signal (z-score): -0.306
[10]
  glycan array binding signal (z-score): -0.277
[11]
  glycan array binding signal (z-score): -0.1
[12]
  glycan array binding signal (z-score): -0.649
[13]
  glycan array binding signal (z-score): -0.43
[14]
  glycan array binding signal (z-score): -0.371
[15]
  glycan array binding signal (z-score): 0.605
[16]
  glycan array binding signal (z-score): -0.673
[17]
  glycan array binding signal (z-score): -0.35
[18]
  glycan array binding signal (z-score): 0.36
[19]
  glycan array binding signal (z-score): -0.51
[20]
  glycan array binding signal (z-score): -0.475
[21]
  glycan array binding signal (z-score): -0.048
[22]
  glycan array binding signal (z-score): 3.1
[23]
  glycan array binding signal (z-score): -0.446
[24]
  glycan array binding signal (z-score): 0.82
[25]
  glycan array binding signal (z-score): -0.673
[26]
  glycan array binding signal (z-score): -0.189
[27]
  glycan array binding signal (z-score): -0.665
[28]
  glycan array binding signal (z-score): 3.68
[29]
  glycan array binding signal (z-score): -0.346
[30]
  glycan array binding signal (z-score): -0.531
[31]
  glycan array binding signal (z-score): 0.573
[32]
  glycan array binding signal (z-score): -0.562
[33]
  glycan array binding signal (z-score): -0.36
[34]
  glycan array binding signal (z-score): 1.88
[35]
  glycan array binding signal (z-score): -0.59
[36]
  glycan array binding signal (z-score): -0.542
[37]
  glycan array binding signal (z-score): -0.488
[38]
  glycan array binding signal (z-score): -0.434
[39]
  glycan array binding signal (z-score): -0.023
[40]
  glycan array binding signal (z-score): 0.653
[41]
  glycan array binding signal (z-score): -0.635
[42]
  glycan array binding signal (z-score): -0.16
[43]
  glycan array binding signal (z-score): -0.164
[44]
  glycan array binding signal (z-score): -0.429
[45]
  glycan array binding signal (z-score): 0.934
